According to PMC4336329 (PLoS ONE, 2015):
About 14,000 (4.5%) of roughly 310,000 compounds showed an effect of 50% or more. Effects have a minus sign here. Some of the results follow.

target: human ether-à-go-go-related gene (hERG) potassium channel (human, UniProt Q12809); experiment: primary screen, population patch clamp on CHO cells stably expressing hERG
Method: Briefly, Chinese hamster ovary (CHO) cells stably expressing the hERG channel were dislodged from tissue culture flasks and dispensed into PPC plates. […] During the recording, background leak currents were estimated by a 100 ms step to -80 mV from an initial holding potential of -70 mV and subtracted from the subsequent current measurement. The campaign was conducted in two phases using slight differences in recording protocol. In the first phase, the initial voltage pulse used a 100 ms step to -30 mV from a holding potential of -70 mV, a 2 s conditioning step to +25 mV, and a 2 s test step to -30 mV. During the second phase of the screen, the potential during the conditioning step was raised to +45 mV. In both phases of the campaign, a secondary voltage pulse was applied using the same parameters as the second phase initial pulse. The initial and secondary pulses were applied in the absence of compound, and upon application of 1 μM and 10 μM test concentrations. […]
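Also: peak tail current of the secondary pulse compared with the same well before compound.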

Chain of human ether-à-go-go-related gene (hERG) potassium channel (Q12809 whole entry, looked up): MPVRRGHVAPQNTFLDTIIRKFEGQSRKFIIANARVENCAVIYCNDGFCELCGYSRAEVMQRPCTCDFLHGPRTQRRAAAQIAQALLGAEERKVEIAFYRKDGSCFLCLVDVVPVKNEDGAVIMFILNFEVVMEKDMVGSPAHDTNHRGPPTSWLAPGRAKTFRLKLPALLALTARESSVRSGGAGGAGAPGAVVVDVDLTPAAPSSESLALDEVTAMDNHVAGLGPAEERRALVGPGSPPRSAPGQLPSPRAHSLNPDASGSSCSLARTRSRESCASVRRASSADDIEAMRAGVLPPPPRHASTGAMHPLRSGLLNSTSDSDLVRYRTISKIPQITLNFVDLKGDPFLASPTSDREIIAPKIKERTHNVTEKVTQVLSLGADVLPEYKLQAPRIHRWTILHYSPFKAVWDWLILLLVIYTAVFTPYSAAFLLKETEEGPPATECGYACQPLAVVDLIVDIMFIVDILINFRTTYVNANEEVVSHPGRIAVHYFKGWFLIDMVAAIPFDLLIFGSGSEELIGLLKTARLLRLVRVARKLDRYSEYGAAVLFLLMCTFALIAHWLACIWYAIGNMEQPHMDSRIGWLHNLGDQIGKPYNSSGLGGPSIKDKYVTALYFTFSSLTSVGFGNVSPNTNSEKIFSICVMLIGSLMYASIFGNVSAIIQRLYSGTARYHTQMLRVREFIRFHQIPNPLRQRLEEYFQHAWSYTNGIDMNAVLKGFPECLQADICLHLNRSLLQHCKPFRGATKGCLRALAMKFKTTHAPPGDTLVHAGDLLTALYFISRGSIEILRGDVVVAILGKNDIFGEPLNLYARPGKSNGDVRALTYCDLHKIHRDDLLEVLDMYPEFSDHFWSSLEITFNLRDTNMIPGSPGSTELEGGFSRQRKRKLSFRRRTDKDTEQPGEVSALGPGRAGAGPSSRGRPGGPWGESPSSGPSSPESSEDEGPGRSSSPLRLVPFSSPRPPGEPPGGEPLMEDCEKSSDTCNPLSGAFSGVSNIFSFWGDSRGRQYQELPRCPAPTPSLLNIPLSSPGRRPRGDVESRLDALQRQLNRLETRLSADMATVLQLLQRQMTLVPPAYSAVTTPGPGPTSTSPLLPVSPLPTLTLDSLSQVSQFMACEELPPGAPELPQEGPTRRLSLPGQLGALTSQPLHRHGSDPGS

| Structure (SMILES) | hERG current change (%, negative = inhibition) at 10uM [%] |
| --- | --- |
| CC(C)CNC(=O)C1CCN(Cc2ccc(OCc3ccccc3)cc2)CC1.O=C(O)C(=O)O | -77.1 |
| Clc1ccc(N/N=C/c2ccncc2)cc1Cl | 30.5 |
| O=C(NC(=S)NCc1ccccc1)c1ccc2c(c1)OCO2 | -8.81 |
| CCOC(=O)N1CCC(NC(=O)CCc2ccccc2)CC1 | 2.99 |
| Cc1cccc(NC(=O)N2CCCC2C(=O)NCc2cccs2)c1 (centres unmarked) | -3.65 |
| COc1cccc(OC)c1C(=O)Nc1cccc(-c2nc3ccccc3[nH]2)c1 | 2.01 |
| CC1CCOC2(O1)C(=O)Nc1ccccc12 (centres unmarked) | 16.1 |
| Cn1c(=O)c(C(=O)CN2CCc3ccccc32)c(N)n(Cc2ccccc2)c1=O | -15.7 |
| Cc1cc([N+](=O)[O-])ccc1-c1ccc(/C=N/NC(=O)c2ccc(Br)o2)o1 | -8.16 |
| CCOc1cccc2cc(C(=O)NCc3ccc(OC)cc3)c(=N)oc12 | 8.01 |
| CCOC(=O)[C@@H]1[C@H]2COc3cc(OC)ccc3[C@@H]2N2C(=O)N(c3ccc(F)cc3)C(=O)[C@]12C | 0.293 |
| Cc1cc(NC(=O)COC(=O)COc2cccc3c2OC(C)(C)C3)no1 | 14 |
| COc1ccc(CC(=O)Nc2nnc(C(C)C)s2)cc1OC | 0.877 |
| CCN1CC(CN(C)Cc2nc(-c3ccc(OC)c4ccccc34)oc2C)CC1=O (centres unmarked) | -37.2 |
| CCCCOC(=O)C1=C(C)Nc2ncnn2C1c1ccc(OC)c(OC)c1 (centres unmarked) | -21.5 |
| COc1ccc2cc(/C=N/O)c(Cl)nc2c1 | 13.2 |
| O=C1NC(=O)N(c2ccccc2)C(=O)/C1=C/c1ccoc1 | 16.7 |
| Cc1nn(-c2ccccc2)c(C)c1C(=O)OCC(=O)N1c2ccccc2NC(=O)C1(C)C | -8.43 |
| CN1CCN(c2nc3c(c(=O)n(C)c(=O)n3C)n2Cc2cccc3ccccc23)CC1 | -5.1 |

| Structure (SMILES) | hERG current change (%, negative = inhibition) at 10uM [%] |
| --- | --- |
| O=C(CCC(=O)N(CC(=O)NC1CCCCC1)c1ccccc1F)Nc1nccs1 | 9.16 |
| O=C1NC(Cc2c[nH]c3ccccc23)C(=O)N1c1ccc(F)cc1 (centres unmarked) | 12.4 |
| COc1cccc(N(C(=O)c2nc3nccc(C)n3n2)c2nc3ccccc3s2)c1 | -32 |
| O=S(=O)(Nn1cnnc1)c1ccccc1Cl | 16.1 |
| Cc1ccc(-n2c(-c3cc(-c4ccco4)[nH]n3)n[nH]c2=S)c(Br)c1 | 10.3 |
| COc1cc(C(CCN2CCCC2)c2c(OC)cc(OC)c3ccc(=O)oc23)cc(OC)c1OC (centres unmarked) | -69.2 |
| Cc1cc(N)n(-c2nc(-c3cccnc3)nc3ccccc23)n1 | -27.4 |
| COc1ccc2cc(S(=O)(=O)NC3CC(C)(C)NC(C)(C)C3)ccc2c1 | -3.04 |
| CS(=O)(=O)N(CC(=O)Nc1cccnc1)c1ccc2c(c1)OCCO2 | 14.9 |
| O=C(Cc1ccc(Br)cc1)Nc1ccc2[nH]ncc2c1 | 24.8 |
| Nc1c(NCc2ccccc2F)c(=O)[nH]c(=O)n1Cc1ccccc1 | -2.29 |
| COc1ccc(OCCCC(=O)Nc2ccc3c(c2)OCO3)cc1 | -3.37 |
| CC(C)Cn1c(N)c(C(=O)COC(=O)c2cc(C3CC3)nc3ccccc23)c(=O)n(C)c1=O | -8.65 |
| COc1ccc(/C(C)=N/NC(=O)Cc2ccc(Cl)cc2)cc1 | 14.6 |
| CC(C)(CNc1ccc(S(=O)(=O)C(F)(F)F)cc1[N+](=O)[O-])N1CCOCC1 | -7.34 |
| O=S(=O)(Nc1cccc(Br)c1)c1cccc2nsnc12 | -3.25 |
| CCN(Cc1ccccc1)C(=O)c1nn(-c2ccc(OC)cc2)c(=O)c2c1c1ccccc1n2C | -5.28 |
| CCn1c2ccccc2c2cc(NC(=O)CSc3nnc(-c4cccc(Cl)c4)o3)ccc21 | 1.03 |
| CC(C)(CNC(=O)c1sc2cc(F)ccc2c1Cl)N1CCOCC1 | -33.2 |

| Structure (SMILES) | hERG current change (%, negative = inhibition) at 10uM [%] |
| --- | --- |
| N/C(=N\OC(=O)CCCCCN1C(=O)c2ccccc2C1=O)c1ccccn1 | 4.97 |
| CCCCn1c(O)c(/C=C/C=C/C=Nc2ccccc2)sc1=S | 31 |
| COC(=O)Cc1nnc(NC(=O)c2ccccc2)s1 | 6.83 |
| CC1(C)CC(N2CCOCC2)=CC(=[N+]2CCOCC2)C1.[I-] | 8.01 |
| CC(C)(C)[C@H]1CCC(=O)N([C@H](CC#N)Cc2ccccc2)CC1 | -13.5 |
| Cc1ccc(C(=O)NC2CC(C)(C)NC(C)(C)C2)cc1 | 0.0221 |
| Cc1ccccc1N1C(=O)CC(N(O)c2ccccc2)C1=O (centres unmarked) | 7.35 |
| NS(=O)(=O)c1ccc(NS(=O)(=O)c2ccc(Br)cc2)cc1 | 15.4 |
| Cc1ccc(S(=O)(=O)N2CCN(C(=O)COC(=O)c3oc4ccccc4c3C)CC2)cc1 | 13.2 |
| O=C(Nc1cccc([N+](=O)[O-])c1)C1C2/C=C\CCCCC21 (centres unmarked) | 20 |
| Cc1cc(C)c(S(=O)(=O)NCc2cccs2)cc1C | -12.6 |
| COC(=O)C(C)Oc1ccc(-c2nccc(-c3cccs3)n2)cc1 (centres unmarked) | 2.25 |
| COc1ccccc1NC(=O)CSc1nnnn1-c1ccc(F)cc1 | -12.3 |
| CC1CCCCC1NC(=O)CCn1c(=O)oc2ccccc21 (centres unmarked) | 5.54 |
| O=S1(=O)CCN2C=C(Br)C=C(Br)C2=N1 | 1.1 |
| Cc1nc2sccn2c(=O)c1S(=O)(=O)N1CCN(c2ccccc2)CC1 | -11.2 |
| OCCC1CN(Cc2cccn2-c2ncccn2)CCN1C1CCCC1 (centres unmarked) | -6.11 |
| CCC(C)[C@H](NC(=O)N1CCN(C)CC1)C(=O)OC (some centres unmarked) | 11.1 |
